Assay results taken from publication PMC11335210.
These are yes or no findings as the source states them, for the method shown. In cells and extracts the contact can be indirect. Some entries that bind do so weakly or less than the wild type. For some assays here: Tags and fused reporters may be left off the sequences shown.

The chains behind the UniProt entries cited, without tags or fusion partners.
UniProt Q9QUI0: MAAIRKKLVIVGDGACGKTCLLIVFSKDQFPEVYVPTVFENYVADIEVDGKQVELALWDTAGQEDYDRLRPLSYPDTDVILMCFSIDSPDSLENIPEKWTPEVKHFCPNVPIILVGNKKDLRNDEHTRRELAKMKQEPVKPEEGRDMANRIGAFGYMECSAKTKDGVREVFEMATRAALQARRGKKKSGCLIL

Legend:
[1] = target: T1, ARHGAP23 (mouse (endogenous in mouse keratinocytes)) (UniProt Q69ZH9); assay: co-IP; anti-ARHGAP23 antibody and Protein A agarose on lysates of WT and PKP4-KO keratinocytes kept 24 h in HCM; normal rabbit IgG as control; IP buffer with 1% NP-40, 137 mM NaCl; western blot
T1 sequence: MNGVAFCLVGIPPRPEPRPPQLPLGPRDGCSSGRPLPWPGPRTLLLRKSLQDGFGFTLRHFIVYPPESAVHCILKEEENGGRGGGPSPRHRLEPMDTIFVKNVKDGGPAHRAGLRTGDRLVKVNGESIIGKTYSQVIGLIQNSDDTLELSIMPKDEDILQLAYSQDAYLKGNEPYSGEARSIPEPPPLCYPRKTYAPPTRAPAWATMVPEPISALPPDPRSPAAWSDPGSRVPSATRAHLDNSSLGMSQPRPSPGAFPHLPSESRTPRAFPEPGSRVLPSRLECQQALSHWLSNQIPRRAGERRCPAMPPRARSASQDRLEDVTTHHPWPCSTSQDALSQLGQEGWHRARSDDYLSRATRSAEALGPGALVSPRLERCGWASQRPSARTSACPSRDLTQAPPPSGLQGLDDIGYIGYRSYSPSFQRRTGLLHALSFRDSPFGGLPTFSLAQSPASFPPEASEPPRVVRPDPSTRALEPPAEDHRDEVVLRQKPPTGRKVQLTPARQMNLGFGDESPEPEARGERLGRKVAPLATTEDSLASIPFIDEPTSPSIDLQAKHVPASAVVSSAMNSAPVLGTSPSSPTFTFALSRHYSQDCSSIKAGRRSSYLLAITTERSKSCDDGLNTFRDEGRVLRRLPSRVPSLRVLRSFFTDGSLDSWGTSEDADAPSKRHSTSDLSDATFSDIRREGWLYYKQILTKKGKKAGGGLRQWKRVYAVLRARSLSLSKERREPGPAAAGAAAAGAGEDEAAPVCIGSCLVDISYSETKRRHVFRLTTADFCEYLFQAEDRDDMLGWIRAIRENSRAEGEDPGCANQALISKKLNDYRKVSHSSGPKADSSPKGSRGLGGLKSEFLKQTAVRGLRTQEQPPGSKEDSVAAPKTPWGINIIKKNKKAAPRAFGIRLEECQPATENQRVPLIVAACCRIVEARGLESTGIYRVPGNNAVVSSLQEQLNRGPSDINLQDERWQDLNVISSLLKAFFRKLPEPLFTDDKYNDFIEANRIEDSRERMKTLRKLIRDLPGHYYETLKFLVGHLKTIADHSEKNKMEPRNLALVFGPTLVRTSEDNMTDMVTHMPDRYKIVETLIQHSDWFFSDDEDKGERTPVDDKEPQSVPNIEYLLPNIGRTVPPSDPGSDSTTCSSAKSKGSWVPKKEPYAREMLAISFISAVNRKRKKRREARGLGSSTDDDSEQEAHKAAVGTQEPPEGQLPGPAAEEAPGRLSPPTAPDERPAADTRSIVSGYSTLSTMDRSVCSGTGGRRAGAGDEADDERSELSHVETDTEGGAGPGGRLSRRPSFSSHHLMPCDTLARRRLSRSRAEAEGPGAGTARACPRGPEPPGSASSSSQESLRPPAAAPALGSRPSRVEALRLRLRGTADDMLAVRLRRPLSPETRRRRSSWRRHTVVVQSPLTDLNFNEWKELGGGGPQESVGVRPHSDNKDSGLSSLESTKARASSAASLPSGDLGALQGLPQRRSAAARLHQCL

[2] = target: T2, human PKP4 N-terminally tagged with EGFP (EGFP-PKP4-WT) (human) (UniProt Q99569); assay: co-IP; GFP-Trap Agarose on lysates of PKP4-KO + GFP-PKP4 (Rescue) keratinocytes, WT + GFP cells as control; IP buffer 20 mM Tris-HCl pH 7.5, 137 mM NaCl, 2 mM EDTA, 10% glycerol, 1% NP-40; 1 h at 4 °C; western blot
T2 sequence: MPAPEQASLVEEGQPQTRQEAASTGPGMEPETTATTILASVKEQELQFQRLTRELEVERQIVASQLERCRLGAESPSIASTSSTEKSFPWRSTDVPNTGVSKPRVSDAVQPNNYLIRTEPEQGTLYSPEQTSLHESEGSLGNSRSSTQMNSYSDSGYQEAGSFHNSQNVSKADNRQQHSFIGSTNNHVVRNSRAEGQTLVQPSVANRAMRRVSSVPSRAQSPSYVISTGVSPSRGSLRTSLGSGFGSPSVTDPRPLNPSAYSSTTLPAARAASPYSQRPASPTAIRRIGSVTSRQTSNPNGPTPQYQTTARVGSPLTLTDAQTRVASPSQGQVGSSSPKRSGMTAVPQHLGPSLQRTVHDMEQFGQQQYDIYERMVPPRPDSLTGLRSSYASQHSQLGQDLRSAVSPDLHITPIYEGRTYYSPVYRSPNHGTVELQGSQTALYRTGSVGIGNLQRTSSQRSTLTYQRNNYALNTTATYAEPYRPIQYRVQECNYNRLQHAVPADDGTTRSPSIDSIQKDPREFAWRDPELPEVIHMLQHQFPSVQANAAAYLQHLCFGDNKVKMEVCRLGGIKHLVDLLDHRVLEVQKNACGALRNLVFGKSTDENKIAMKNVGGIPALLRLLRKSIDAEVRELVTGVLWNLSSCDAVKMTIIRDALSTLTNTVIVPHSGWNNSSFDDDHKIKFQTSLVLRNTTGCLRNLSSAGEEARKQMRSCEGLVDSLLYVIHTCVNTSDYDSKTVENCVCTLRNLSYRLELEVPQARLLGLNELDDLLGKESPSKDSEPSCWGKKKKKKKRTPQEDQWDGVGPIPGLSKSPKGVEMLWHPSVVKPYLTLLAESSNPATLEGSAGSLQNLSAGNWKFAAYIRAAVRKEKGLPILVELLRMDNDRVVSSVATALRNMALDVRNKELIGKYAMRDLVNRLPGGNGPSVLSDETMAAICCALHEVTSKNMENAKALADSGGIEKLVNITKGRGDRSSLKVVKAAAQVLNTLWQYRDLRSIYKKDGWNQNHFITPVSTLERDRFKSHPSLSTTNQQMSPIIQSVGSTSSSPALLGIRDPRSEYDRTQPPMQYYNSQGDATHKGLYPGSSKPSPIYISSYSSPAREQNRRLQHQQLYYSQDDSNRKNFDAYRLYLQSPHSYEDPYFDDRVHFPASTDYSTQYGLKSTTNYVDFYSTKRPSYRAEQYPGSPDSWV

- binding [1]: binds
- binding [2]: no binding
Substance: RhoA (from UniProt Q9QUI0 1-193)
